# According to PubChem BioAssay AID720708 (National Center for Advancing Translational Sciences (NCATS), 2013):
# Out of some 360,000 compounds screened, about 660 (0.18%) were called active. The shares of active, inactive and inconclusive entries below differ from those in the screen. Calls come from the whole dose curve; as a rule, active = well fitted inhibition curve with a large enough effect; inconclusive = small, poorly fitted or top-dose-only effect; inactive = no such curve, though single readings can be large or run the other way. No potency is given beside an inconclusive call; the fits are too rough.
# Target: Rap guanine nucleotide exchange factor 4 (Homo sapiens) (UniProt Q8WZA2)
# Assay: qHTS for Antagonist of cAMP-regulated guanine nucleotide exchange factor 2 (EPAC2): primary screen; note: nearly all actives have a fitted effect of over 45% in size
# Settings: EPAC2 GEF exchange of Rap1B-BODIPY-GDP, fluorescence; activity, negative = inhibition: at 114 µM (top of the series) unless noted
# % is set by controls: 0 for no effect and ±100 for the full control effect; potency is the fitted concentration of half-maximal effect; tags give direction and shape of the fitted curve.
# UniProt Q8WZA2, sequence (Q8WZA2 whole entry, looked up): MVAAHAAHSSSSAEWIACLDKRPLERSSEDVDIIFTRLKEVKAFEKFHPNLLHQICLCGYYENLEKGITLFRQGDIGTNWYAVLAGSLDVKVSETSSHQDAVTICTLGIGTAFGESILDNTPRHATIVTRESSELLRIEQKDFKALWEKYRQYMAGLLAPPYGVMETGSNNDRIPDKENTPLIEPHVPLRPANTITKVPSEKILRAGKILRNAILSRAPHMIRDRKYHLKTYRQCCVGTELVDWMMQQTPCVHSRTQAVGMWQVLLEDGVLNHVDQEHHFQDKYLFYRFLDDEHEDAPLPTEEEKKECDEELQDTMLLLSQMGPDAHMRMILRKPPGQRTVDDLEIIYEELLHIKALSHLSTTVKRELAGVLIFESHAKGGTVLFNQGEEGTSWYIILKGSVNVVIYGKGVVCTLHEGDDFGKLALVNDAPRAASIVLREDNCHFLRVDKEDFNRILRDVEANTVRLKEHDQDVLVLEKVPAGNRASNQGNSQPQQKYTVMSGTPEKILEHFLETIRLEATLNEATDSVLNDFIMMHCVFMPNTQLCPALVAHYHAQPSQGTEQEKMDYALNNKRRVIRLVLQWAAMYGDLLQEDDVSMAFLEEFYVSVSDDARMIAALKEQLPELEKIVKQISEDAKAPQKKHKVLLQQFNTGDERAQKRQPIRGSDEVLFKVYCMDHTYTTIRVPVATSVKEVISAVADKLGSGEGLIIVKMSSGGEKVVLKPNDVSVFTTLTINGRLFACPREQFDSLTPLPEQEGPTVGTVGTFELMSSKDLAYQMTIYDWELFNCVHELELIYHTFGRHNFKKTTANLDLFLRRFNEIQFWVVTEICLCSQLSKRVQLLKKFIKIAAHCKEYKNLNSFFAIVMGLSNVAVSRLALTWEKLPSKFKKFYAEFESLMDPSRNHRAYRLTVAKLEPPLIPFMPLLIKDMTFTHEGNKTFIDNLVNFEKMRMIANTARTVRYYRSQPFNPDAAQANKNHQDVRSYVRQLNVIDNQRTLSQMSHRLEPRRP
SMILES,Potency,"activity, negative = inhibition"
COc1cc(N(Cc2ccccc2)Cc2ccccc2)c2ncn(C(C)C)c2c1,"inconclusive [inhibitor, single point]",
O=C(c1cc(N2CCOCC2)c(F)cc1[N+](=O)[O-])N1CCOCC1,"inconclusive [inhibitor, full curve, poor fit]",
O=c1[nH]c(N2CCOCC2)nc2ncn(Cc3ccccc3)c12,,inactive: 4.22%
CCOC(=O)c1cnc(-n2nc(C)cc2C)nc1Nc1ccc(N(C)C)cc1,,inactive: 14.9%
O=C1C=C(NCCc2cc(Br)c(O)c(Br)c2)C(=O)c2ncccc21,active: 79.4 µM,
CC(=C\c1ccccc1)/C=C1/SC(=S)N(C(C(=O)O)C(C)C)C1=O (stereo not given),"inconclusive [inhibitor, partial curve, poor fit]",
O=C(Nc1ccc(Cl)cc1)c1ccc(OCC2CCCO2)cc1 (stereo not given),,inactive: -1.77%
CCN(CC(=O)NC(=O)NCc1ccco1)Cc1nc2ccccc2c(=O)[nH]1,,inactive: -2.94%
CCC(C)[C@H]1CNC(=S)N1CCc1cc(C(F)(F)F)cc(C(F)(F)F)c1 (stereo not given in full),"inconclusive [inhibitor, partial curve]",
O=C1NC(=O)C(c2ccccc2)(c2ccccc2)N1S(=O)(=O)c1ccccc1,"inconclusive [inhibitor, full curve]",
CC1(C(=O)Nc2ccc(Cl)c(Cl)c2)CCN1C(=O)C1CCCCC1 (stereo not given),,inactive: 1.25%
CCOC(=O)c1sc(NC(=O)C2CC2)cc1C,,inactive: -5.92%
c1coc(-c2nnc(-c3ccco3)nn2)c1,,inactive: 16.7%
COC(=O)C1=CN(C(C)c2ccccc2)C=C(C(=O)OC)C1c1cc(OC)c(OC)c(OC)c1 (stereo not given),"inconclusive [inhibitor, partial curve]",
CC1=NNC(=O)/C1=C\c1cn(-c2ccccc2)nc1-c1cccs1,,inactive: 7.95% [at 57.1 µM]
Cc1onc(-c2ccccc2)c1C(=O)NCCc1ccc(S(N)(=O)=O)cc1,"inconclusive [inhibitor, single point]",
CCn1c(=O)c(C(=O)NNC(=O)c2ccccc2Br)c(O)c2ccccc21,"inconclusive [inhibitor, single point]",
COc1ccc(C[C@H]2CN3C(=NC[C@@H]3Cc3ccc(O)cc3)N2C[C@H](C)NC(=O)c2ccc(C)c(Br)c2)cc1,,inactive: 13%
CC(=NNC(N)=S)c1ccc2cc3c(cc2c1)OCO3,"inconclusive [inhibitor, full curve]",
CCCCC[C@@H](C)N1C[C@@H](COCc2ccccc2)Oc2cc(N3CC[C@@H](N(C)C)C3)ccc2S1(=O)=O,"inconclusive [inhibitor, partial curve]",
C=CCS/C(N)=N\N=C\c1c(O)ccc2ccccc12,"inconclusive [inhibitor, full curve, poor fit]",
Cc1[nH]c2ccccc2c1/C=N/NC(=S)NC(C)C,"inconclusive [inhibitor, partial curve]",
COc1cc(/C=C2\C(=N)N3N=C(N4CCOCC4)SC3=NC2=O)ccc1OC(=O)c1ccccc1,"inconclusive [inhibitor, partial curve]",
CCOc1cc(/C=C(/C#N)c2ccc(Cl)cc2)cc(Cl)c1OCC(=O)O,"inconclusive [inhibitor, partial curve]",

SMILES,Potency,"activity, negative = inhibition"
Clc1ccc(/C=N/NC(=Nc2ccccc2)c2ccccn2)c(Cl)c1,,inactive: 1.12%
Cc1ccc(C2Nc3cccc4cccc(c34)N2)cc1,"inconclusive [inhibitor, partial curve]",
COc1ccc(NC(=O)c2ccccc2NC(=O)C2CCCCC2C(=O)O)cc1 (stereo not given),,inactive: -3.75%
COC(=O)c1sccc1NC(=O)c1ccccc1Br,"inconclusive [inhibitor, partial curve]",
CC1=C(C(=O)OCC(C)C)C(c2ccccc2Cl)NC(=O)N1C (stereo not given),"inconclusive [inhibitor, partial curve]",
CN(/N=C/c1ccc(O)cc1O)c1ncc(C(F)(F)F)cc1Cl,"inconclusive [inhibitor, full curve, poor fit]",
CS(=O)(=O)N1CC(C(=O)NN)Oc2ccc(Cl)cc21 (stereo not given),,inactive: 1.52%
O=C(c1cc(O)c(O)c([N+](=O)[O-])c1)c1ccccc1F,,inactive: 1.21%
COc1cc(C=O)ccc1OCCOCCOc1ccc(Cl)cc1,"inconclusive [inhibitor, single point]",
N#CC(C#N)=Cc1cc2ccccc2nc1N1CCCCC1,"inconclusive [inhibitor, single point]",
COc1ccccc1Nc1cc(C)nc2c(C)ccc([N+](=O)[O-])c12,"inconclusive [inhibitor, partial curve]",
COc1cc(/C=C/CNC[C@H]2O[C@@H](n3cnc4c(=O)[nH]c(N)nc43)[C@H](O)[C@@H]2O)ccc1O,"inconclusive [inhibitor, single point]",
CCCCN(C(=O)CSc1nnc(-c2ccccc2)o1)c1c(N)n(CCC)c(=O)[nH]c1=O,,inactive: -0.396%
Cc1ccn2c(-c3csc(NCc4ccccc4)n3)c(C)nc2c1,"inconclusive [inhibitor, partial curve]",
COc1ccc([C@H]2CC(=O)C=C(c3ccc4ncccc4c3)C2)cc1,"inconclusive [inhibitor, single point]",
O=C(NCCOc1ccccc1-c1ccccc1)c1ccco1,"inconclusive [inhibitor, full curve]",
O=C(COc1cccc(OC(F)F)c1)Nc1ccc(SC(F)F)cc1,active: 25.1 µM,
Cc1ccc2sc(N(CCCN(C)C)C(=O)c3nc4ccccc4s3)nc2c1C,"inconclusive [inhibitor, partial curve]",
CSC(=Nc1ccccc1)N=C(SCc1ccccc1)N(C)C,,inactive: 0.0137%
O=[N+]([O-])c1cccc(/C=N/N2CCN(Cc3ccccc3)CC2)c1,,inactive: 5.26%
Cc1c(CCC(=O)NCCCCCC(=O)O)c(=O)oc2cc3occ(-c4ccccc4)c3cc12,"inconclusive [inhibitor, full curve, poor fit]",
CON(C)c1nc(C2CCCCC2)c2cc(C)ccc2n1,"inconclusive [inhibitor, partial curve]",
Cc1nc(N(C)C)c2sc(=S)n(Cc3ccccc3)c2n1,"inconclusive [inhibitor, partial curve, poor fit]",
COc1ccccc1C1CC(=O)Oc2cc(C)c(Cl)cc21 (stereo not given),"inconclusive [inhibitor, full curve]",

SMILES,Potency,"activity, negative = inhibition"
CCCCN(CCCC)Cc1cc(=O)oc2ccccc12,"inconclusive [inhibitor, full curve]",
COCC(C)n1c(=O)sc2ccccc2c1=O (stereo not given),"inconclusive [inhibitor, full curve]",
Clc1c(Cl)c(Cl)c2n[nH]nc2c1Cl,"inconclusive [inhibitor, full curve]",
CC(=O)c1c(OCC(=O)O)ccc2c(C)cc(=O)oc12,,inactive: 1.1%
CCCCC[C@@H](C)N1C[C@@H](COCc2ccccc2)Oc2cc(N3CC[C@H](N(C)C)C3)ccc2S1(=O)=O,"inconclusive [inhibitor, partial curve]",
Cc1cccn2c(=O)c(C=O)c(N3CCN(c4ccc(F)cc4)CC3)nc12,"inconclusive [inhibitor, single point]",
COc1ccc(NC2c3ccccc3C(=O)N2c2ccccn2)cc1Cl (stereo not given),"inconclusive [inhibitor, full curve]",
Cc1ccc(C(=O)NC(=S)Nc2cccc(NC(=O)c3ccccc3)c2)cc1[N+](=O)[O-],,inactive: -4.52%
COc1cc(C)nc(N2CCCC(C(=O)NC3CCC(C)CC3)C2)n1 (stereo not given),,inactive: -2.86%
CCCCC[C@@H](C)N1C[C@@H](COCc2ccccc2)Oc2cc(N3CC[C@H](O)C3)ccc2S1(=O)=O,"inconclusive [inhibitor, partial curve]",
Cc1ccc(-c2noc(CSc3nnnn3C3CCCCC3)n2)cc1,"inconclusive [inhibitor, single point]",
COC(=O)c1cc(C#N)c(OC(C)C)nc1C,"inconclusive [inhibitor, partial curve, poor fit]",
CCN(Cc1ccccc1)S(=O)(=O)c1ccc(OC)cc1,"inconclusive [inhibitor, partial curve]",
C[C@H](CO)N1C[C@H](C)[C@@H](CN(C)Cc2ccc(Cl)c(Cl)c2)Oc2c(NC(=O)C3CCOCC3)cccc2C1=O,"inconclusive [inhibitor, single point]",
Cc1cccc(N=c2oc3cc(O)ccc3cc2C(N)=O)c1,,inactive: -1.25%
C/C(CCC(C)C)=N\NC(=O)COc1ccccc1-c1ccccc1,"inconclusive [inhibitor, single point]",
COc1cc(/C=C2/C(=O)ON=C2c2ccccc2)ccc1O,,inactive: 6.7%
COCCN(C(=O)CCC(=O)Nc1ccccn1)C(C(=O)NCCC(C)C)c1ccc(C)cc1 (stereo not given),"inconclusive [inhibitor, single point]",
CCCCCNC(=O)C(c1ccc(OC)cc1)n1c(=O)c(-c2ccco2)nc2ccccc21 (stereo not given),"inconclusive [inhibitor, partial curve]",
COc1ccc(CC(=O)Nc2ccc(C(=O)Nc3ccccc3C(=O)O)cc2)cc1OC,,inactive: 3.54%
Cc1ccc2c(c1)C(=O)CC(c1ccc3c(c1)OCCO3)O2 (stereo not given),"inconclusive [inhibitor, partial curve]",
O=C(Cc1cccs1)NCc1cccc(Br)c1,,inactive: 1.8%
